Out of some 48,000 compounds screened, about 450 (0.94%) were called active. Not shown: some 19% with an inconclusive outcome. Calls follow the shape of the dose curve; as a rule, active = well fitted inhibition curve with a large enough effect; inconclusive = small, poorly fitted or top-dose-only effect; inactive = no such curve, though single readings can be large or run the other way. The list shows a part of the results.
Experiment: Primary qHTS for Identification of Small Molecule Inhibitors of Huntingtin Promoter Activity; also: nearly all actives have a fitted effect of over 50% in size
Conditions: HEK293 HTT promoter firefly luciferase reporter (activity 0% = vehicle and -100% = no light), 24 h; series mostly up to 57.5 µM; activity change, negative = inhibition: at the top concentration
Outline: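 HEK293 cells carrying firefly luciferase reporters were seeded at 2,500 per well in Opti-MEM and cultured for 24 h. They were then treated with compounds at up to 57.5 uM final for 24 h at 37 degrees C before Dual-Glo luminescence readout.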

Activity change, negative = inhibition, inactive:
Cc1ccc2scc(N3CCN(c4ccc(F)cc4)CC3)c(=O)c2c1 -12.1%
COc1ccc(NC(=O)c2sc3nc4n(c(=O)c3c2C)CCC4)cc1Cl 32.5%
O=C(NCc1ccc(Cl)cc1)c1cnc2sc(N3CCCC3)nn2c1=O 4.64%
CCOc1ccc(C(c2c(O)cc(C)n(CCOC)c2=O)N2CCC(C)CC2)cc1 (stereo not given) -9.94%
COc1ccc(Cl)cc1NC(=O)CN(c1cccc(C)c1C)S(=O)(=O)c1ccccc1 -34.4%
O=C(CC1N=C2c3ccccc3N=C(SCc3ccccc3F)N2C1=O)NCc1ccc2c(c1)OCO2 (stereo not given) -0.325%
COc1ccc2c(c1)sc1ncc(C(=O)NCc3cccc(Cl)c3)c(=O)n12 2.33%
COc1cc(C)ccc1OCCn1c(-c2ccc(Cl)cc2)nc2ccccc2c1=O 1.1%
Cc1ccc(N(C)S(=O)(=O)c2nnc(NC(=O)C3CCCCC3)s2)cc1 10.7%
CCc1ccc(CNC(=O)c2cc(-c3ccc(Cl)s3)nc3ccccc23)cc1 0.527%
Cc1ccc(CCNC(=O)c2ccc(CSCc3ccccc3Cl)o2)cc1 -23.1%
O=C(Cc1ccc(NC(=O)N2CCSc3ncccc32)cc1)NCCc1ccccc1 -30.7%
CCOC(=O)N1CCc2c(sc3c2c(=O)n(-c2ccc(CC)cc2)c(=O)n3CC(=O)Nc2ccc(C)cc2)C1 -6.26%
CCNc1ccc(-c2nc(-c3ccco3)no2)cc1[N+](=O)[O-] 63.5%
Cc1ccccc1NC(=O)c1c(NC(=O)Cc2ccccc2)sc2c1CCC2 -12.4%
CCOc1ccc(CNC(=O)c2ccc3c(c2)c(C)c(C)n3Cc2ccc(Cl)cc2)cc1 -26.9%
CN(C)S(=O)(=O)n1cc(/C=C(\NC(=O)c2ccccc2)C(=O)NCCCn2ccnc2)c2ccccc21 -0.366%
COc1ccc(N2CC(NC(=O)CCc3ccccc3)CC2=O)cc1OC (stereo not given) 3.58%
Cc1ccc2oc(=O)n(CCCOc3ccc(Cl)cc3)c2c1 -5.13%
CCOC(=O)c1ccccc1NC(=O)N1CCC(N2CCN(Cc3ccccc3)C(=O)C2=O)CC1 2.48%
O=C(Cn1c(=O)n(CC2CCCO2)c(=O)c2ccccc21)Nc1cccc(Cl)c1 (stereo not given) -11.3%
COc1cc(OC)c(Nc2nc3ccccc3nc2-n2nc(C)cc2C)cc1Cl -27.7%
COC(=O)c1scc(-c2ccc(C)cc2)c1S(=O)(=O)N1CCN(c2ccc(OC)cc2)CC1 -22.3%
CCS(=O)(=O)N1CCc2cc(C(=O)NCc3ccccc3)ccc21 6.41%
Cc1ccc(-c2nc3nc(C)cc(Nc4ccccc4O)n3n2)cc1 -6.7%
Cc1ccc(CCn2c3c(c4cc(Cl)ccc42)CN(C)CC3)cn1 -2.98%
COc1cc(OC)c(NS(=O)(=O)c2cc(-c3cnc(C)o3)ccc2OC)cc1Cl -29.4%
Cc1ccc(NC(=O)CN2C(=O)CCn3nc(-c4cccn4C)cc32)cc1 11.9%
COCCCNc1nc2c(S(=O)(=O)c3ccc(C)c(C)c3)nnn2c2ccc(Cl)cc12 -5.48%
Cc1ccc2oc(-c3cc(NC(=O)c4ccco4)ccc3Cl)nc2c1 -4.71%
CCOC(=O)c1ccc(N2C(=O)c3n[nH]c(-c4ccco4)c3C2c2ccc(O)c(OC)c2)cc1 (stereo not given) -35.1%
CCN(CC)CCNC(=O)c1nn(C)c2c1CS(=O)(=O)c1ccccc1-2 -4.12%
CCC(=O)N1c2ccccc2CC1C(=O)NCCc1ccc(C)cc1 (stereo not given) 0%
Cc1ccc(CNC(=O)c2nn(C)c3c2CS(=O)(=O)c2ccccc2-3)cc1 -24.3%
Cc1cn(C)c(CC(=O)NCc2ccccc2Cl)c1C(=O)O -5.23%
O=C(CSCc1nc2cccnc2n1C1CCCCC1)NCc1cccc(Cl)c1 -26.2%
COc1ccc(-n2nc(C(=O)N3CCN(c4cccc(C)c4C)CC3)c3c4ccccc4n(C)c3c2=O)cc1 -6.03%
CCC(C)OC(=O)/C(C#N)=C\c1ccc(-c2ccccc2Cl)o1 (stereo not given) 18.1%
CCOc1ccc(N(CC(=O)NCc2ccc(C)cc2)S(=O)(=O)c2c(C)noc2C)cc1 -1.81%
Cc1cccc(NC(=O)Cn2c(=O)nc(-c3ccccc3)c3ccccc32)c1C -15%
COc1ccc(C)cc1NC(=O)C1CCCN(S(=O)(=O)c2ccc3[nH]c(=O)ccc3c2)C1 (stereo not given) -23.6%
COc1cc(NC(=O)CN2C(=O)CN(C)C(=O)c3ccccc32)cc(OC)c1OC 7.82%
CCOC(=O)c1c(C)[nH]c(C)c1S(=O)(=O)N1CCC(C(=O)Nc2ccc(C)cn2)CC1 -16.5%
CCn1c2ccccc2c2cc(NC(=O)COc3cccc(C)c3)ccc21 -3.65%
CCOc1cc2[nH]c(=O)n(CCCC(=O)N3CCN(c4ccc(OC)cc4)CC3)c(=O)c2cc1OCC -22.6%
Cc1ccc(F)c(NC(=O)Nc2ccc3snnc3c2)c1 9.72%
CCOc1ccc(CCNC(=O)c2cn(CC)c3ccc(S(=O)(=O)N4CCCCCC4)cc3c2=O)cc1OCC 4.61%
O=C(NCCN1CCN(c2cccc(Cl)c2)CC1)C1COc2ccccc2C1 (stereo not given) -9.28%
Cc1cccc(CNC(=O)Cn2ccc3cc(S(=O)(=O)N4CCCC4)ccc32)c1 -5.92%
Cc1ccc(S(=O)(=O)N(CCc2ccccc2)CC(=O)Nc2cc(C)ccc2C)cc1 -38.7%
CN(C)S(=O)(=O)c1ccc(C(=O)NC2CC(=O)N(c3ccc4c(c3)OCCO4)C2)cc1 (stereo not given) -14.4%
COc1cc(C2C(C(=O)Nc3ccc(C)cc3C)=C(C)Nc3nc4ccccc4n32)cc(OC)c1OC (stereo not given) -2.74%
Cn1cc(C(=O)NCc2ccccc2)c(=O)c2cc(S(=O)(=O)N3CCOCC3)ccc21 -19.2% [at 11.5 µM]
Cc1cccc(NC(=O)Cn2nnc(C(=O)Nc3ccccc3Br)c2N)c1C -3.4%
CCOc1ccccc1NC(=O)c1nc2nc(C)cc(C(F)F)n2n1 1.58%
O=C(NC1CC(=O)N(c2ccc(Cl)cc2)C1)c1ccc2c(c1)OCO2 (stereo not given) 10.8%
COc1cccc(N2CCN(C(=O)C3CCN(S(=O)(=O)c4c(C)noc4C)CC3)CC2)c1 -1.74%
CSc1ccc(CCNC(=O)CN2C(=O)c3cccnc3Oc3ccc(C)cc32)cc1 -2.84%
CCCN1CCN(CCCNC(=O)Cn2nc(CC)n3c(cc4occc43)c2=O)CC1 -15.4%
Cc1ccc2c(=O)cc(C(=O)N(Cc3ccc(N(C)C)cc3)C3CCS(=O)(=O)C3)oc2c1 (stereo not given) 24.2%
CCc1cccc(C)c1NC(=O)CSc1nc2ccccc2nc1N1CCOCC1 -28.4%
CC1(C)O[C@H]2[C@@H](O1)[C@@H](C(=O)Nc1ccc(F)c(F)c1)O[C@@H]1OC(C)(C)O[C@@H]12 -7.19%
Cc1cc(F)ccc1NS(=O)(=O)c1c(C)nc2scc(C)n2c1=O -24.3%
CCOc1ccc(CCNC(=O)Cn2nc(CC)n3c(cc4sccc43)c2=O)cc1 -6.45%
Cc1nn2c(C)c(C(=O)NCC(C)c3ccccc3)cnc2c1-c1ccccc1 (stereo not given) -10.5%
O=C(Nc1c2c(nn1-c1ccc(Cl)cc1)CS(=O)(=O)C2)c1ccccc1F -19.1%
COc1ccc(C2NC(=O)N(C)C3=C2C(=O)N(c2ccc(F)cc2)C3)cc1 (stereo not given) -19.8%
Cc1cccc(NC(=O)CSc2nccn2-c2cccc(Cl)c2)c1C -20.7%
CCC(C(=O)NCc1ccccc1Cl)n1nc(C)c2sc3ccccc3c2c1=O (stereo not given) -2.28%
CSc1ccc(/C=C2/C(C)=C(CC(=O)O)c3cc(F)ccc32)cc1 -1.57%
Cc1ccc(NC(=O)c2sc(-n3nc(C)c(Cc4ccc5c(c4)OCO5)c3C)nc2C)cc1C -8.76%
CCOc1cc(C2c3c(-c4ccccc4O)n[nH]c3C(=O)N2Cc2cccnc2)ccc1O (stereo not given) -10.8%
O=C(CCCn1c(=O)c2sccc2n(Cc2cccc(Cl)c2)c1=O)NCc1ccc2c(c1)OCO2 -5.19%
CCOC(=O)CN1C(=O)c2cccnc2Oc2ccccc21 -14.6%
Cc1cc(C)cc(NC(=O)CSCc2cc(=O)c3ccc(C)c(C)c3[nH]2)c1 -1.47%
CNS(=O)(=O)c1cn(CC(=O)N2CCN(c3cc(C)ccc3C)CC2)cc1S(=O)(=O)NC 7.48%
O=c1cc(-c2ccccc2)n2c(SCc3cccc([N+](=O)[O-])c3)nnc2[nH]1 -7.32%
CCOc1cc(C(=O)N2CCC(c3ccncc3)CC2)cc(OCC)c1OCC -15.7%
NC(=O)C1CCN(C(=O)Cn2c(-c3cccs3)cc3ccccc32)CC1 -21.7%
CCOc1ccc(NC(=O)CN2CCN(CC(=O)Nc3ccccc3OCC)CC2)cc1 -10.5%
COc1ccc(CCNC(=O)CCn2c(=O)c3cccn3c3cccnc32)cc1OC -5.96%
CCc1ccccc1Nc1nc2ccccc2n2cnnc12 -29%
COc1ccccc1-n1nc(-c2ccccc2)c2cnc3cc(C(F)(F)F)ccc3c21 -8.67%
CCOC(=O)c1ccc(NC(=O)COC(=O)c2cn(CC)c3nc(C)ccc3c2=O)cc1 -0.856%
CC1CN(S(=O)(=O)c2ccc3c(c2)NC(=O)CC(=O)N3)c2ccccc2O1 (stereo not given) 4.79%
COc1ccc(-c2oc3ncn4nc(-c5ccccc5C)nc4c3c2-c2ccc(OC)cc2)cc1 -18.4% [at 11.5 µM]
Cc1cccc(C)c1OC(=O)CSc1nnc(-c2cccs2)o1 2.99%
CCOC(=O)c1ccc(C#Cc2ccc3c(c2)C(C)(C)CCS3)nc1
Cc1ccc(C)c(CN2C(=O)c3ccccc3S(=O)(=O)c3ccc(C(=O)N4CCN(c5ccccc5F)CC4)cc32)c1 -8.5%
COc1ccc(CNC(=O)CCc2nnc3n(CC(C)C)c(=O)c4ccccc4n23)cc1 -8.99%
COc1ccc(C)cc1NS(=O)(=O)c1ccc2[nH]c(=O)c(=O)[nH]c2c1 -8.36%
CCn1ccc2cc(S(=O)(=O)N3CCCN(C(=O)NCCOC)CC3)ccc21 -26.9%
CCS(=O)(=O)N1CCc2cc(C(=O)Nc3cc(C(F)(F)F)ccc3Cl)ccc21 -21.1%
COc1cccc(NC(=O)Cn2c(=O)n(CCCCC(=O)NCCc3ccccc3)c(=O)c3ccccc32)c1 -12.1%
O=C(CSc1nnc2ccc3ccccc3n12)c1ccc(F)cc1 73.2%

— PubChem BioAssay AID1508623 (National Center for Advancing Translational Sciences (NCATS), 2021)
